According to the supplement of paper PMC9927326:
MIC of clinical C. albicans isolates, CLSI broth microdilution (ranges and time not stated); higher = less susceptible. Call: susceptible or wild type [S] / resistant or non-wild type [R] by CLSI breakpoints or epidemiological cut-offs; intermediate and dose-dependent carry no call here (the paper groups them with resistant). '<=' and '>=' mark each drug's lowest and highest value, inferred; the source prints them plain. Isolates are numbered anew.

How the values were obtained:
Experiment in all cases: CLSI broth microdilution.
itraconazole = compound: CCC(C)n1ncn(-c2ccc(N3CCN(c4ccc(OCC5COC(Cn6cncn6)(c6ccc(Cl)cc6Cl)O5)cc4)CC3)cc2)c1=O [itraconazole]
micafungin = compound: CCCCCOc1ccc(-c2cc(-c3ccc(C(=O)N[C@H]4C[C@@H](O)[C@@H](O)NC(=O)[C@@H]5[C@@H](O)[C@@H](C)CN5C(=O)[C@H]([C@H](O)CC(N)=O)NC(=O)[C@H]([C@H](O)[C@@H](O)c5ccc(O)c(OS(=O)(=O)O)c5)NC(=O)[C@@H]5C[C@@H](O)CN5C(=O)[C@H]([C@@H](C)O)NC4=O)cc3)no2)cc1 [micafungin]
anidulafungin = compound: CCCCCOc1ccc(-c2ccc(-c3ccc(C(=O)N[C@H]4C[C@@H](O)[C@@H](O)NC(=O)[C@@H]5[C@@H](O)[C@@H](C)CN5C(=O)[C@H]([C@@H](C)O)NC(=O)[C@H]([C@H](O)[C@@H](O)c5ccc(O)cc5)NC(=O)[C@@H]5C[C@@H](O)CN5C(=O)[C@H]([C@@H](C)O)NC4=O)cc3)cc2)cc1 [anidulafungin]
posaconazole = compound: CC[C@@H]([C@H](C)O)n1ncn(-c2ccc(N3CCN(c4ccc(OC[C@@H]5CO[C@@](Cn6cncn6)(c6ccc(F)cc6F)C5)cc4)CC3)cc2)c1=O [posaconazole]
caspofungin = compound: CC[C@H](C)C[C@H](C)CCCCCCCCC(=O)N[C@H]1C[C@@H](O)[C@@H](NCCN)NC(=O)[C@@H]2[C@@H](O)CCN2C(=O)[C@H]([C@H](O)CCN)NC(=O)[C@H]([C@H](O)[C@@H](O)c2ccc(O)cc2)NC(=O)[C@@H]2C[C@@H](O)CN2C(=O)[C@H]([C@@H](C)O)NC1=O [caspofungin]
voriconazole = compound: C[C@@H](c1ncncc1F)[C@](O)(Cn1cncn1)c1ccc(F)cc1F [voriconazole]
amphotericin B = compound: C[C@@H]1[C@H](O)[C@@H](C)/C=C/C=C/C=C/C=C/C=C/C=C/C=C/[C@H](O[C@@H]2O[C@H](C)[C@@H](O)[C@H](N)[C@@H]2O)C[C@@H]2O[C@](O)(C[C@@H](O)C[C@@H](O)[C@H](O)CC[C@@H](O)C[C@@H](O)CC(=O)O[C@H]1C)C[C@H](O)[C@H]2C(=O)O [amphotericin B]
flucytosine = compound: Nc1[nH]c(=O)ncc1F [flucytosine]
fluconazole = compound: OC(Cn1cncn1)(Cn1cncn1)c1ccc(F)cc1F [fluconazole]

Test System	MIC (itraconazole)	MIC (micafungin)	MIC (anidulafungin)	MIC (posaconazole)	MIC (caspofungin)	MIC (voriconazole)	MIC (amphotericin B)	MIC (flucytosine)	MIC (fluconazole)
Candida albicans isolate 249 (Erg11p: WT, Fur1p: WT, Tac1p: N896S)	0.03 mg/L [S]	≤ 0.008 mg/L [S]	0.06 mg/L [S]	0.015 mg/L [S]	0.06 mg/L [S]	≤ 0.008 mg/L [S]	0.25 mg/L [S]	≤ 0.06 mg/L [S]	0.25 mg/L [S]
Candida albicans isolate 199 (Erg11p: WT, Fur1p: WT, Tac1p: I558V,A377V,F189S,N174D,M170I,K87N)	≤ 0.015 mg/L [S]	≤ 0.008 mg/L [S]	0.06 mg/L [S]	0.015 mg/L [S]	0.03 mg/L [S]	≤ 0.008 mg/L [S]	0.5 mg/L [S]	≤ 0.06 mg/L [S]	0.25 mg/L [S]
Candida albicans isolate 242 (Erg11p: WT, Fur1p: WT, Tac1p: A377V,F189S,N174D,M170I,K87N)	0.06 mg/L [S]	0.015 mg/L [S]	≤ 0.015 mg/L [S]	0.03 mg/L [S]	0.06 mg/L [S]	0.03 mg/L [S]	1 mg/L [S]	≤ 0.06 mg/L [S]	0.5 mg/L [S]
Candida albicans isolate 185 (Erg11p: WT, Fur1p: WT, Tac1p: I558V,A377V,F189S,N174D,M170I,K87N)	0.03 mg/L [S]	0.015 mg/L [S]	≤ 0.015 mg/L [S]	0.015 mg/L [S]	0.015 mg/L [S]	≤ 0.008 mg/L [S]	0.5 mg/L [S]	≤ 0.06 mg/L [S]	0.25 mg/L [S]
Candida albicans isolate 316 (Erg11p: WT, Fur1p: WT, Tac1p: A377V,F189S,N174D,M170I,K87N)	≥ 16 mg/L [R]	≤ 0.008 mg/L [S]	0.12 mg/L [S]	≥ 8 mg/L [R]	0.06 mg/L [S]	≥ 8 mg/L [R]	0.5 mg/L [S]	0.12 mg/L [S]	≥ 256 mg/L [R]
Candida albicans isolate 48 (Erg11p: G129A, Fur1p: WT, Tac1p: R869Q,L695F,I558V,A377V,F189S,M170V,L131I)	≤ 0.015 mg/L [S]	0.015 mg/L [S]	≤ 0.015 mg/L [S]	0.03 mg/L [S]	0.06 mg/L [S]	≤ 0.008 mg/L [S]	0.5 mg/L [S]	≤ 0.06 mg/L [S]	0.5 mg/L [S]
Candida albicans isolate 120 (Erg11p: D153E,Y132H, Fur1p: WT, Tac1p: N896S)	≥ 16 mg/L [R]	≤ 0.008 mg/L [S]	0.12 mg/L [S]	≥ 8 mg/L [R]	0.03 mg/L [S]	≥ 8 mg/L [R]	0.5 mg/L [S]	0.12 mg/L [S]	≥ 256 mg/L [R]
Candida albicans isolate 297 (Erg11p: V488I,E266D, Fur1p: WT, Tac1p: I558V,A377V,F189S,N174D,M170I,K87N)	0.03 mg/L [S]	≤ 0.008 mg/L [S]	≤ 0.015 mg/L [S]	0.015 mg/L [S]	0.03 mg/L [S]	≤ 0.008 mg/L [S]	0.5 mg/L [S]	≤ 0.06 mg/L [S]	0.25 mg/L [S]
Candida albicans isolate 39 (Erg11p: V488I,E266D, Fur1p: WT, Tac1p: I558V,A377V,F189S,N174D,M170I,K87N)	0.03 mg/L [S]	0.015 mg/L [S]	0.12 mg/L [S]	0.015 mg/L [S]	0.06 mg/L [S]	≤ 0.008 mg/L [S]	0.25 mg/L [S]	≤ 0.06 mg/L [S]	0.25 mg/L [S]
Candida albicans isolate 55 (Erg11p: WT, Fur1p: WT, Tac1p: N896S)	0.03 mg/L [S]	≤ 0.008 mg/L [S]	0.06 mg/L [S]	0.015 mg/L [S]	0.03 mg/L [S]	≤ 0.008 mg/L [S]	0.5 mg/L [S]	≤ 0.06 mg/L [S]	≤ 0.12 mg/L [S]
Candida albicans isolate 355 (Erg11p: V488I,E266D, Fur1p: WT, Tac1p: N896S,M170V,S108N)	0.06 mg/L [S]	0.015 mg/L [S]	0.06 mg/L [S]	0.03 mg/L [S]	0.06 mg/L [S]	≤ 0.008 mg/L [S]	0.5 mg/L [S]	≤ 0.06 mg/L [S]	0.5 mg/L [S]
Candida albicans isolate 369 (Erg11p: WT, Fur1p: WT, Tac1p: WT)	0.03 mg/L [S]	≤ 0.008 mg/L [S]	0.06 mg/L [S]	0.015 mg/L [S]	0.03 mg/L [S]	≤ 0.008 mg/L [S]	0.5 mg/L [S]	≤ 0.06 mg/L [S]	0.5 mg/L [S]
Candida albicans isolate 49 (Erg11p: V488I,E266D, Fur1p: WT, Tac1p: N896S,I895T)	0.06 mg/L [S]	0.015 mg/L [S]	0.03 mg/L [S]	0.03 mg/L [S]	0.06 mg/L [S]	0.06 mg/L [S]	0.5 mg/L [S]	0.12 mg/L [S]	0.5 mg/L [S]
Candida albicans isolate 9 (Erg11p: WT, Fur1p: WT, Tac1p: WT)	0.03 mg/L [S]	0.015 mg/L [S]	0.03 mg/L [S]	0.015 mg/L [S]	0.03 mg/L [S]	≤ 0.008 mg/L [S]	0.25 mg/L [S]	≤ 0.06 mg/L [S]	0.5 mg/L [S]
Candida albicans isolate 161 (Erg11p: WT, Fur1p: WT, Tac1p: I558V,A377V,F189S,N174D,M170I,K87N)	≤ 0.015 mg/L [S]	≤ 0.008 mg/L [S]	0.06 mg/L [S]	≤ 0.008 mg/L [S]	0.03 mg/L [S]	≤ 0.008 mg/L [S]	0.25 mg/L [S]	≤ 0.06 mg/L [S]	≤ 0.12 mg/L [S]
Candida albicans isolate 236 (Erg11p: E266D, Fur1p: WT, Tac1p: T885K,I558V,A430V,A377V,M170V)	≤ 0.015 mg/L [S]	≤ 0.008 mg/L [S]	≤ 0.015 mg/L [S]	≤ 0.008 mg/L [S]	0.015 mg/L [S]	≤ 0.008 mg/L [S]	0.25 mg/L [S]	≤ 0.06 mg/L [S]	0.25 mg/L [S]
Candida albicans isolate 226 (Erg11p: WT, Fur1p: WT, Tac1p: N896S)	≤ 0.015 mg/L [S]	0.015 mg/L [S]	0.03 mg/L [S]	0.015 mg/L [S]	0.015 mg/L [S]	≤ 0.008 mg/L [S]	0.25 mg/L [S]	≤ 0.06 mg/L [S]	0.5 mg/L [S]
Candida albicans isolate 264 (Erg11p: E266D,D153E, Fur1p: WT, Tac1p: N896S,I558V,A377V,F189S)	≤ 0.015 mg/L [S]	0.03 mg/L [S]	0.06 mg/L [S]	≤ 0.008 mg/L [S]	0.015 mg/L [S]	≤ 0.008 mg/L [S]	0.25 mg/L [S]	≤ 0.06 mg/L [S]	1 mg/L [S]
Candida albicans isolate 124 (Erg11p: WT, Fur1p: WT, Tac1p: N896S)	0.03 mg/L [S]	≤ 0.008 mg/L [S]	≤ 0.015 mg/L [S]	0.015 mg/L [S]	0.03 mg/L [S]	≤ 0.008 mg/L [S]	0.25 mg/L [S]	0.12 mg/L [S]	0.25 mg/L [S]
Candida albicans isolate 134 (Erg11p: WT, Fur1p: WT, Tac1p: N896S,C858Y,N823K,I558V,F189S)	≤ 0.015 mg/L [S]	0.015 mg/L [S]	0.03 mg/L [S]	0.015 mg/L [S]	0.015 mg/L [S]	≤ 0.008 mg/L [S]	0.5 mg/L [S]	≤ 0.06 mg/L [S]	0.5 mg/L [S]
Candida albicans isolate 234 (Erg11p: G465S,Y132H, Fur1p: R101C, Tac1p: WT)	≤ 0.015 mg/L [S]	0.015 mg/L [S]	≤ 0.015 mg/L [S]	≤ 0.008 mg/L [S]	0.015 mg/L [S]	0.12 mg/L [S]	0.25 mg/L [S]	≤ 0.06 mg/L [S]	1 mg/L [S]
Candida albicans isolate 190 (Erg11p: S405F,Y132H, Fur1p: WT, Tac1p: A377V,F189S,N174D,M170I,K87N)	0.12 mg/L [S]	0.015 mg/L [S]	0.12 mg/L [S]	0.06 mg/L [S]	0.06 mg/L [S]	0.5 µg/mL	0.5 mg/L [S]	≤ 0.06 mg/L [S]	64 mg/L [R]
Candida albicans isolate 139 (Erg11p: Y257H,A114S, Fur1p: R101C, Tac1p: A736V)	1 mg/L [R]	0.015 mg/L [S]	≤ 0.015 mg/L [S]	1 mg/L [R]	0.03 mg/L [S]	1 mg/L [R]	0.25 mg/L [S]	0.12 mg/L [S]	32 mg/L [R]
Candida albicans isolate 169 (Erg11p: V488I,E266D, Fur1p: WT, Tac1p: N896S,I895T)	≤ 0.015 mg/L [S]	0.015 mg/L [S]	0.03 mg/L [S]	0.015 mg/L [S]	0.03 mg/L [S]	≤ 0.008 mg/L [S]	0.25 mg/L [S]	≤ 0.06 mg/L [S]	0.25 mg/L [S]
Candida albicans isolate 313 (Erg11p: WT, Fur1p: WT, Tac1p: I558V,A377V,F189S,N174D,M170I,K87N)	≤ 0.015 mg/L [S]	0.015 mg/L [S]	≤ 0.015 mg/L [S]	0.015 mg/L [S]	0.03 mg/L [S]	≤ 0.008 mg/L [S]	0.25 mg/L [S]	≤ 0.06 mg/L [S]	0.25 mg/L [S]
Candida albicans isolate 282 (Erg11p: WT, Fur1p: WT, Tac1p: I558V,A377V,F189S,N174D,M170I,K87N)	≤ 0.015 mg/L [S]	0.015 mg/L [S]	0.06 mg/L [S]	0.015 mg/L [S]	0.03 mg/L [S]	≤ 0.008 mg/L [S]	0.25 mg/L [S]	≤ 0.06 mg/L [S]	≤ 0.12 mg/L [S]
Candida albicans isolate 63 (Erg11p: Y132H,T123I, Fur1p: R101C, Tac1p: WT)	0.12 mg/L [S]	≤ 0.008 mg/L [S]	≤ 0.015 mg/L [S]	0.06 mg/L [S]	0.015 mg/L [S]	0.5 µg/mL	0.5 mg/L [S]	0.5 mg/L [S]	4 µg/mL
